In PubChem BioAssay AID1347165 (National Center for Advancing Translational Sciences (NCATS), 2019):
About 5,700 (2.6%) of roughly 220,000 compounds were called active. The inconclusive results got no clear call from the source; some entries with a clear call stand among them for comparison. Calls follow the shape of the dose curve; as a rule, active = well fitted inhibition curve with a large enough effect; inconclusive = small, poorly fitted or top-dose-only effect; inactive = no such curve, though single readings can be large or run the other way. A potency beside an inconclusive call is a rough fit, not a confirmed value.

Molecular target: Lysine-specific demethylase 5B (Homo sapiens) (UniProt Q9UGL1)
Assay: Primary screen for KDM5B Histone Demethylases FDH-coupled qHTS; also: nearly all actives have a fitted effect of over 70% in size; as to activity change, negative = inhibition: 0% is about no effect
Settings: FDH-coupled NADH fluorescence (FDH is formaldehyde dehydrogenase); activity change, negative = inhibition: at 57.7 µM (top of the series) unless noted
Summary of the method: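 Here, H3K4me3 peptide (12.5 µM in substrate mix) is demethylated by KDM5BΔAP, 200 nM final, after 10 min compound exposure. Formaldehyde product is coupled through FDH (0.25 U/mL in mix) to NADH fluorescence; 30-min ΔRFU feeds dose-response curves.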
Potency is read from the fitted curve at half-maximal effect; tags tell the direction and shape of the fitted curve.

UniProt Q9UGL1, sequence (Q9UGL1 whole entry, looked up): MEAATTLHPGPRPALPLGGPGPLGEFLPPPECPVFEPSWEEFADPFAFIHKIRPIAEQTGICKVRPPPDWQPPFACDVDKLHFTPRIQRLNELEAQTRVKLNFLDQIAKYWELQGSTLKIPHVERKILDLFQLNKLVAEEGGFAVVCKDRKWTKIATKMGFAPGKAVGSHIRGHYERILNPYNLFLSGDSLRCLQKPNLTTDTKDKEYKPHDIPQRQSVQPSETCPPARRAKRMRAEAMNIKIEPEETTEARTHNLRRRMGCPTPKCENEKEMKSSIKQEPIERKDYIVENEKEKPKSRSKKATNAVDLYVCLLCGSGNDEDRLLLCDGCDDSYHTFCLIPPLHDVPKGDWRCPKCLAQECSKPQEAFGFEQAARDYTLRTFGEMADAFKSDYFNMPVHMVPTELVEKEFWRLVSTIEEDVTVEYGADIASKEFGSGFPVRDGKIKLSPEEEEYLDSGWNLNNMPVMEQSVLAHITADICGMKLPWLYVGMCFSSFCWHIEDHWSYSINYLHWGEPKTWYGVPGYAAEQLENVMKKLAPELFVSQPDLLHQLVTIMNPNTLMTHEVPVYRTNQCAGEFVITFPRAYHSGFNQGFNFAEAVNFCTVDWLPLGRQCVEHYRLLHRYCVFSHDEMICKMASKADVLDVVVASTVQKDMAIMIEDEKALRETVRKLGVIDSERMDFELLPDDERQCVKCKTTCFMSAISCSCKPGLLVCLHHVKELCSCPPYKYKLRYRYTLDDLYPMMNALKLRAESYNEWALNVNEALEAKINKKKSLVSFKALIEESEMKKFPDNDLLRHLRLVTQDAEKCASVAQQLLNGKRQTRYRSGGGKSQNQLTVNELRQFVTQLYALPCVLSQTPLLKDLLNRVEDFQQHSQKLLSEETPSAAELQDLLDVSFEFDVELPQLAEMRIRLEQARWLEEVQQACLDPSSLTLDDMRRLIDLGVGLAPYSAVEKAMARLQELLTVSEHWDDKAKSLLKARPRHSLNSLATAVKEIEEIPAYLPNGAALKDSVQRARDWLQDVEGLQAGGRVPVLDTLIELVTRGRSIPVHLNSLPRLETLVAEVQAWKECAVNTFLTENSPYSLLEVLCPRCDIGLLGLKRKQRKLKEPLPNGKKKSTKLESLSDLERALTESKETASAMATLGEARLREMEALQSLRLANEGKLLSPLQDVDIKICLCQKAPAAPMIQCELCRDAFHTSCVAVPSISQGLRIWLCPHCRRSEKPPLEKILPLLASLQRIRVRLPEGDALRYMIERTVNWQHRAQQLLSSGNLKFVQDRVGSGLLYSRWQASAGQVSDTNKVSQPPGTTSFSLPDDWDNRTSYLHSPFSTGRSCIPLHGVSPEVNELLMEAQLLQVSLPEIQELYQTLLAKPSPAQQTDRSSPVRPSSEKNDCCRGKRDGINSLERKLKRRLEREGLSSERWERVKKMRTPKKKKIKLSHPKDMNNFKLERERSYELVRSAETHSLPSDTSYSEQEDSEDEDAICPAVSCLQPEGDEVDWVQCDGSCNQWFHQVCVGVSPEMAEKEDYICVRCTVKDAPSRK

SMILES	Potency	activity change, negative = inhibition
CCOC(=O)c1cc(-c2ccc(OC)cc2)n(CCC(=O)Nc2ccccc2OC)c1C	inconclusive: 22.4 µM [inhibitor, single point]	
O=C(CSc1nccn1Cc1ccccc1)NCc1ccco1	inconclusive: 7.94 µM [inhibitor, partial curve, poor fit]	
S=C(Nc1ccccc1)N[C@H]1CO[C@H]2[C@@H]1OC[C@H]2OCc1ccccc1	inconclusive: 22.4 µM [inhibitor, single point]	
CCOc1ccccc1NC(=O)CN1C(=O)COc2ccc(S(=O)(=O)N3CCOCC3)cc21		inactive: -1.22%
COC(=O)c1sc2nc(CN(C)Cc3ccc(F)cc3)[nH]c(=O)c2c1C	inconclusive: 39.8 µM [inhibitor, partial curve, poor fit]	
COc1ccc(CN2Cc3[nH]cnc3C[C@H]2c2nc(-c3ccccn3)no2)cc1	inconclusive: 31.6 µM [inhibitor, single point]	
CS(=O)(=O)c1ccccc1C(=O)NCc1coc(-c2cccs2)n1	inconclusive: 22.4 µM [inhibitor, partial curve, poor fit]	
CCn1cc2c3c(cccc31)CN(C(=O)Cc1ccc(F)cc1)CC2	inconclusive: 31.6 µM [inhibitor, partial curve, poor fit]	
Cc1nc2cc(NC(C)C(=O)Nc3cccc(Cl)c3)ccc2o1 (stereo not drawn)	inconclusive: 31.6 µM [inhibitor, single point]	
CCC(CC)C(=O)OCc1cc(=O)n2nc(C3CC3)sc2n1		inconclusive: -50.9% [inhibitor]
O=C(CCCn1c(=O)c2cccn2c2ccccc21)Nc1cc(C(F)(F)F)ccc1Cl	inconclusive: 14.1 µM [inhibitor, partial curve, poor fit]	
O=C(c1nn(Cc2ccccc2)c(=O)c2ccccc12)N1CCN(C(=O)C2CC2)CC1		inactive: 15.7%
COCCN(C(=O)CCCc1nc2ccccc2s1)c1c(N)n(CC(C)C)c(=O)[nH]c1=O	inconclusive: 20 µM [inhibitor, partial curve, poor fit]	
S=c1[nH]c(-c2cccs2)cn1-c1ccccc1	inconclusive: 31.6 µM [inhibitor, partial curve, poor fit]	
Cc1ccc(C)c(C(=O)C(C)Oc2ccc(C#N)cc2)c1 (stereo not drawn)		inactive: 20.8%
c1coc(-c2ccnc3nc(C4CCC4)nn23)c1	active: 28.2 µM	
CCOC(=O)c1ccc(N2C(=O)c3[nH]nc(-c4ccccc4)c3C2c2ccc(CC)cc2)cc1 (stereo not drawn)	inconclusive: 35.5 µM [inhibitor, single point]	
O=C(CCN1C(=O)/C(=C\C=C\c2ccccc2)SC1=S)Nc1ccccc1C(=O)O	inconclusive: 31.6 µM [inhibitor, partial curve, poor fit]	
COCCCNc1nc2c(S(=O)(=O)c3ccccc3)nnn2c2ccccc12	active: 79.4 µM	
O=C(Nc1ccc(Cl)cc1)c1nc2c(o1)CCN(Cc1ccc3c(c1)CCO3)CC2	active: 31.6 µM	
Cc1cc(-c2cccc(CCOc3cnc4c(ccn4CC(=O)O)c3)c2)ccn1	active: 35.5 µM	
CCCc1nnc2sc(C(C)(C)Oc3ccc(Cl)cc3)nn12		inactive: 6.96%
CCCCN(C)C(=O)c1ccc2c(c1)N(Cc1ccc(F)cc1)C(=O)c1ccccc1S2(=O)=O		inconclusive: -36.4% [inhibitor]

SMILES	Potency	activity change, negative = inhibition
CC(C)CCNC(=O)c1c2c(nc3ccccc13)C(=O)N(C1CCCCC1)C2	inconclusive: 35.5 µM [inhibitor, single point]	
Cc1ccc(-n2c(=O)c3oc4ccccc4c3n(CC(=O)Nc3ccc(F)c(Cl)c3)c2=O)cc1C	inconclusive: 3.55 µM [inhibitor, full curve, poor fit]	
COc1ccccc1-c1nc(N2CCOCC2)cc2c1CN(c1ccccc1)C2=O	active: 35.5 µM	
Cc1cc(C)c(NC(=O)Cn2ccn3nc4c(c3c2=O)CCCC4)c(C)c1	inconclusive: 39.8 µM [inhibitor, partial curve, poor fit]	
COc1cc(CNC(=O)c2c(C)noc2-c2ccc(C(C)(C)C)cc2)cc(OC)c1	inconclusive: 31.6 µM [inhibitor, single point]	
CCCc1cc(=O)oc2cc(OCc3cc(C)ccc3C)ccc12	inconclusive: 31.6 µM [inhibitor, partial curve, poor fit]	
O=C(Cn1nc2c(cc1=O)CCCCC2)NCCc1ccccn1	inconclusive: 28.2 µM [inhibitor, partial curve, poor fit]	
O=C(N[C@@H]1CN(c2ccncn2)C[C@H]1CO)c1ccco1		inactive: 17.3%
CCOCCCNC(=O)c1cc(=O)[nH]c2ccc(S(=O)(=O)N3CCCC3)cc12	inconclusive: 28.2 µM [inhibitor, partial curve, poor fit]	
COc1ccc(-c2onc(C)c2C(=O)NCc2ccccc2C)cc1	inconclusive: 28.2 µM [inhibitor, partial curve, poor fit]	
CN1CCN(C(CN)C2CCCCC2)CC1 (stereo not drawn)	inconclusive: 7.08 µM [inhibitor, partial curve, poor fit]	
CC(=O)c1ccc(OCc2c(F)cccc2Cl)cc1		inactive: -5.75%
O=C1ON=C(c2ccccc2)/C1=C\c1ccco1	inconclusive: 5.62 µM [inhibitor, full curve, poor fit]	
CCCN(CC(=O)Nc1ccccc1OC)C(=O)c1cc(=O)c2ccccc2o1		inactive: 12.2%
CC(C)(C)c1cc(NCc2ccccn2)n2ncc(-c3ccc(Cl)cc3)c2n1	inconclusive: 25.1 µM [inhibitor, partial curve, poor fit]	
CCOC(=O)C(C)Oc1cc2oc(=O)cc(C)c2cc1Cl (stereo not drawn)	inconclusive: 31.6 µM [inhibitor, partial curve, poor fit]	
O=C1CCC2(CCCO2)CCN1Cc1ccc(F)c(F)c1 (stereo not drawn)	inconclusive: 2.82 µM [inhibitor, full curve]	
CC(C)OCCCNC(=O)C1CC(=O)N(c2n[nH]c3cc(Br)ccc23)C1 (stereo not drawn)		inactive: -22%
COc1cccc(Nc2ncc3c(n2)C(C)(C(=O)Nc2ccc(OC)nc2)CC3)c1 (stereo not drawn)	inconclusive: 56.2 µM [inhibitor, single point]	
Nc1nc2c(s1)C(c1ccc(F)cc1F)CC(=O)N2 (stereo not drawn)	active: 31.6 µM	
CCc1ccccc1NC(=O)C(CC)Oc1ccccc1-c1nnc(-c2ccccc2)o1 (stereo not drawn)		inactive: -25%
N#CCCNC(=O)COC(=O)c1ccccc1-c1ncc(-c2ccc(F)cc2)o1	inconclusive: 28.2 µM [inhibitor, partial curve, poor fit]	
CSc1ccc(C(C)NC(=O)c2ccccc2F)cc1 (stereo not drawn)		inactive: 15.8%

SMILES	Potency	activity change, negative = inhibition
CC(=O)Nc1ccccc1OCc1cccc(C)c1		inactive: 1.75%
CCOc1ccc(CNC(=O)c2cnc3sc(N(CC)CC)nn3c2=O)cc1	inconclusive: 31.6 µM [inhibitor, partial curve, poor fit]	
COc1cccc(NC(=O)c2c(N3CCCC3=O)c3cc(C)ccc3n2C)c1	inconclusive: 28.2 µM [inhibitor, partial curve, poor fit]	
O=C(NCCc1c[nH]c2ccccc12)c1ccc(-c2ccccc2)cc1		inactive: -15.6%
CN(Cc1ccccc1)C(=O)Cc1ccc(N(Cc2ccccc2)C(=O)c2ccco2)cc1	inconclusive: 28.2 µM [inhibitor, single point]	
O=c1[nH]nc(-c2ccco2)c2c1Nc1nnnn1C2c1ccc(Br)cc1 (stereo not drawn)	inconclusive: 20 µM [inhibitor, partial curve, poor fit]	
COC[C@@H]1CN(c2cnccn2)C[C@H]1C(=O)NCCc1ccncc1	active: 25.1 µM	
COc1ccc(Cn2cnc3c4cc(F)ccc4n(C)c3c2=O)cc1	inconclusive: 12.6 µM [inhibitor, partial curve, poor fit]	
CC1(C(=O)NC2CCCCC2)Cc2ccccc2C(=O)N1Cc1ccc(F)cc1 (stereo not drawn)	inconclusive: 2 µM [inhibitor, full curve, poor fit]	
O=C(CCCc1nc2ccccc2s1)NC1CCCCCCC1		inactive: -20.5%
COc1cccc(-c2noc(COc3ccc4ccc(=O)oc4c3)n2)c1		inactive: -28.3%
Cc1ccc(S(=O)(=O)c2nc(-c3ccco3)oc2SCc2ccc(F)cc2)cc1	inconclusive: 1.26 µM [inhibitor, full curve, poor fit]	
N#Cc1ccc(CSc2ccc3c(c2)OCCO3)cc1		inactive: 14.5%
CCc1ccccc1NC(=O)Nc1cn(CC(C)C)c(=O)c2ccccc12	inconclusive: 17.8 µM [inhibitor, partial curve, poor fit]	
Cc1cccc(NC(=O)Nc2ccc(C)n(CC(=O)N(C)C)c2=O)c1	inconclusive: 25.1 µM [inhibitor, single point]	
O=C(CC(c1ccccc1)c1ccccc1F)N1CCN(c2ccncc2)CC1 (stereo not drawn)		inactive: -21.4%
CC1CCN(C(=O)C2CCN(C(=O)c3ccc4ccccc4n3)CC2)CC1		inactive: 17.3%
Cc1[nH]c(=O)[nH]c(=O)c1CCC(=O)Nc1nc(C(C)C)cs1		inactive: -2.21%
Fc1ccc(OCCOCCN2CCCC2)cc1	inconclusive: 25.1 µM [inhibitor, partial curve, poor fit]	
COc1cc(OC)c(OC)cc1CN1CCN(c2ccc(F)cc2)CC1	inconclusive: 8.91 µM [inhibitor, full curve, poor fit]	
COc1ccc(CN2C[C@@H](CO)[C@H](c3ccncc3)C2)c(OC)c1	inconclusive: 8.91 µM [inhibitor, partial curve]	
Cc1cc(C)nc(NNc2ccc([N+](=O)[O-])cc2)n1	inconclusive: 17.8 µM [inhibitor, single point]	
